Test results as given in PMC4336329 (PLoS ONE, 2015).
In all, about 310,000 compounds went through this assay and about 14,000 (4.5%) showed an effect of 50% or more. Effects have a minus sign here. The list shows a part of the results.

target: human ether-à-go-go-related gene (hERG) potassium channel (human, UniProt Q12809); test: primary screen, population patch clamp on CHO cells stably expressing hERG
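Further: peak tail current of the secondary pulse compared with the same well before compound.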

human ether-à-go-go-related gene (hERG) potassium channel, sequence (Q12809 whole entry, looked up): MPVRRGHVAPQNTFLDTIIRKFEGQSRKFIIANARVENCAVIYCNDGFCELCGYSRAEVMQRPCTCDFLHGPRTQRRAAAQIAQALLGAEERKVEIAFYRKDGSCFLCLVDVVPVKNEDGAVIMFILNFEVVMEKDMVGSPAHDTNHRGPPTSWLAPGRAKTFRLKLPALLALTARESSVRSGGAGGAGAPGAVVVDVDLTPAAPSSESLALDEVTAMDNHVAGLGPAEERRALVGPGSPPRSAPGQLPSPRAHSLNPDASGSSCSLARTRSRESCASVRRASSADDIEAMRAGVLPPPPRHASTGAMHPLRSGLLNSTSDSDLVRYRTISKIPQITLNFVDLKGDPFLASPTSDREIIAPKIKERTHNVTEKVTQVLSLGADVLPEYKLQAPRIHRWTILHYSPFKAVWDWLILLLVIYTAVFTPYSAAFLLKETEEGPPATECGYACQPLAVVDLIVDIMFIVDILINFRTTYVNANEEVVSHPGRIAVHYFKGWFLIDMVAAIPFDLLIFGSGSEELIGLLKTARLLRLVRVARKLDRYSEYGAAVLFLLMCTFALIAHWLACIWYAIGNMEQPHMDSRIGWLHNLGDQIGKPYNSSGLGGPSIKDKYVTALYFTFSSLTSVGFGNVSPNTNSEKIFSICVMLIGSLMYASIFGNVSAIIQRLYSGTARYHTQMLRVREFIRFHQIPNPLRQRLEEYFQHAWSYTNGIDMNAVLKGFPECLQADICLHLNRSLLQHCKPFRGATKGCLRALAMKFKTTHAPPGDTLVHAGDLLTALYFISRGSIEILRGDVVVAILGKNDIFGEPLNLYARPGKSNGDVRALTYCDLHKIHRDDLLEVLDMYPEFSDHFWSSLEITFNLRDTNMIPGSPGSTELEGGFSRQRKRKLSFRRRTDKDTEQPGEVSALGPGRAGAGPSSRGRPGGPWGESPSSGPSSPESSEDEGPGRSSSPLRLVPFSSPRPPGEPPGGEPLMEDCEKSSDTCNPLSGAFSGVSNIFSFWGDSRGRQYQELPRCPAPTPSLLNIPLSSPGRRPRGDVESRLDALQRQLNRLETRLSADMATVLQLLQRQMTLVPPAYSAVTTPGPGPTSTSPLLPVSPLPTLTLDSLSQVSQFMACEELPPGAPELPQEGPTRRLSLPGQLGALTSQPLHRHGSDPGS

SMILES	hERG current change (%, negative = inhibition) at 10uM
Cc1cc(C(=O)Nn2c(-c3ccc(Br)cc3)nc3ccccc3c2=O)ccc1[N+](=O)[O-]	8.86%
COc1ccc2c(c1)[nH]c1c(=O)n(CCCN3CCOCC3)cnc12	-3.98%
Cc1ccc(SCC(=O)NC2CCCCCC2)cc1	-1.43%
CCN(CC)C(=O)CSc1nnc(-c2cccs2)n1Cc1ccco1	-11%
Cc1ccc(-c2nc(CS(=O)CC(=O)NCCN(CC(C)C)CC(C)C)c(C)o2)cc1 (stereo not drawn)	-19.4%
CCOC(=O)N1CCC(N(CCN(C)C)C(=S)Nc2ccc(OCC)cc2)CC1	-10.3%
CN(C)c1ccc(/C=N/NC(=O)CNC(=O)/C=C/c2ccco2)cc1	-9.23%
COc1cc(C(=O)NCC(c2ccco2)N(C)C)cc(OC)c1OC (stereo not drawn)	-5.76%
O=C(CSc1nc2ccccc2s1)Nn1cnnc1	-10.8%
COc1cccc(/C=C2\Sc3ccc(C(=O)NCC4CCCO4)cc3N(C)C2=O)c1 (stereo not drawn)	-19.9%
Cc1ccc(OCC(=O)N2CCc3ccccc3C2)c(Br)c1	0.848%
COc1ccccc1OCC(=O)N/N=C/c1c(O)ccc2ccccc12	4.13%
O=C(NN=C1CCN(Cc2ccccc2)CC1)c1ccccc1	7.78%
C=CCNC(=S)NNc1ncnc2sc3c(c12)CC(C)(C)OC3	11%
O=C(NCC1CCN(c2ccc(S(=O)(=O)N3CCOCC3)cc2)CC1)Nc1ccccc1	10.4%
COc1ccc(Cl)cc1NS(=O)(=O)c1c(C)[nH]c(C)c1C(=O)N1CCCCC1	-3.77%
CCC(C)Sc1cc(-c2nc3ccccn3c2NC2CCCCC2)ccc1OC.O=C(O)C(F)(F)F (stereo not drawn)	0.241%
CSCCC(NC(N)=O)C(=O)Nc1ccc2ccccc2c1 (stereo not drawn)	28%
CC(C)(C)NC(=O)CSc1nnc(Cc2ccc3c(c2)OCO3)n1C1CCCCC1	9.73%
O=C(N=C1SC2CS(=O)(=O)CC2N1c1cc(Cl)ccc1Cl)C1CCCO1 (stereo not drawn)	-8.6%
COc1cc(C(=O)NCc2cn3ccccc3n2)cc(OC)c1OC	-5.15%
OC(COC1CCCCC1)CN1CCN(c2ccccc2)CC1 (stereo not drawn)	-29.8%
COc1cccc(NC(=O)c2csc3c2CCCC3)c1	23.8%

SMILES	hERG current change (%, negative = inhibition) at 10uM
O=C(Nc1cc2c3c(c1)CC(=O)N3CCC2)C1CC1	9.48%
COC(=O)CSc1nc(NC(C)C)nc(N(C)C)n1	11.2%
COc1cc(/C=N/Nc2nc3ccccc3[nH]2)cc(OC)c1O	-55.9%
C=CCNC(=O)C(=O)c1cccn1-c1ccsc1C(=O)OC	8.72%
CCOC(=O)CSc1nnc(Cc2ccccc2)n1CC1CCCO1 (stereo not drawn)	5%
COC(=O)Cc1c(O)ccn(Cc2cccc3ccccc23)c1=O	-1.37%
O=C(NCCc1ccc(F)cc1)c1ccc2c(=O)n3c(nc2c1)CCC3	-45.7%
CCN(CC)C(=O)C1CCN(CC2CC=CCC2)CC1 (stereo not drawn)	-0.0716%
CCOC(=O)C1C(=O)CC(C)(O)C(C(=O)OCC)C1c1ccc([N+](=O)[O-])cc1 (stereo not drawn)	-8.06%
COc1cc(C2c3c(oc4ccccc4c3=O)C(=O)N2c2ccc(C)cn2)ccc1O (stereo not drawn)	-1.3%
Cc1onc(-c2c(F)cccc2Cl)c1C(=O)OCC(=O)NC(N)=O	6.22%
COc1cc(OC)c(N(C)C(=O)CCNC(=O)Cn2cnc3ccccc3c2=O)cc1Cl	-25.3%
c1cc(CNCC2CCCO2)ccn1 (stereo not drawn)	22.8%
CCCCn1c(N)c(N(CC(C)C)C(=O)C2CCCO2)c(=O)[nH]c1=O (stereo not drawn)	15.2%
COc1ccc2oc(C(=O)Nc3nc4ccc(S(C)(=O)=O)cc4s3)c(C)c2c1	7.81%
CCNc1nc(NCC)n2c(SCC(=O)Nc3ccc(OC)c(OC)c3)nnc2n1	16.8%
O=C(CNc1cc(S(=O)(=O)N2CCCC2)ccc1OCC(F)(F)F)Nc1cccc(C(F)(F)F)c1	-15.7%
O=c1cc(NS(=O)(=O)c2ccccc2)nc(SCc2ccccc2Cl)[nH]1	6.99%
O=C(NC(=S)Nc1cccc(Cl)c1N1CCCCC1)c1cccs1	22.7%
CC(C)[C@H](NC(=O)c1ccccc1Cl)C(=O)OCC(=O)NC(=O)NC1CCCC1	6.08%
O=C(CN1CCN(C(c2ccccc2)c2ccccc2)CC1)NC(=O)NCc1ccco1	-5.1%
Cc1cccc(C)c1NC(=O)CSc1nnnn1-c1ccc(C(=O)O)cc1	-20.9%
CCc1ccccc1NC(=O)C1CCCN(c2nn3c(=O)cc(C)nc3s2)C1 (stereo not drawn)	-0.0691%

SMILES	hERG current change (%, negative = inhibition) at 10uM
CCOC(=O)C1CCCN(Cc2ccccc2C)C1 (stereo not drawn)	-15.1%
COC(=O)C1=C(c2ccc3ccccc3c2)C[C@@H]2CC[C@H]1N2C(=O)NCCO	6.99%
Cc1ccc(C(=O)NC2CCC(C)CC2)s1 (stereo not drawn)	-2.36%
Cc1nc(Nc2ccc3c(c2)OCCO3)c2oc3ccccc3c2n1	-5.62%
Cc1nnc(NC(=O)CCSc2ccccc2)s1	1.73%
COc1ccccc1N1CCN(C(=O)C2c3ccccc3Oc3ccccc32)CC1	-14.9%
C[C@H](NC(=O)[C@@H]1CSC2c3ccccc3C(=O)N21)C(=O)NCc1c(F)cccc1Cl (stereo partly drawn)	4.53%
COc1ccc(-c2noc(CCC(=O)N3CCN(Cc4ccccc4)CC3)n2)cc1	-32.8%
COc1ccccc1N1C(=O)C2C(c3ccccc3F)NN(C(=O)c3ccc(C)cc3)C2C1=O (stereo not drawn)	-3.72%
Cc1cc(NC(=O)c2cccs2)ccc1NC(=O)Cc1ccccc1	5.7%
COc1ccc(S(=O)(=O)N2CCC(C(=O)NCc3cccnc3)CC2)cc1C	6.12%
Cc1cc(C(=O)COC(=O)Cc2n[nH]c(=O)c3ccccc23)c(C)n1-c1ccc2c(c1)OCO2	10.7%
COc1ccc(CN2CCN(C(=O)c3cccc4ccccc34)CC2)cc1Br	0.873%
O=C(CCSc1nnc(-c2ccco2)o1)N1CCOCC1	-10.4%
COc1ccc(NC(C)=O)cc1NC(=O)c1ccc(Cl)cc1	-18.2%
O=C1COc2ccc(C(=O)COC(=O)c3sc4ccccc4c3Cl)cc2N1	14%
CCOc1ccccc1-c1nc(-c2ccncc2)no1	-15.8%
Cn1c(CNc2ccccc2)cc(=O)n(C)c1=O	6.36%
COC1CCCCC1Nc1cc(C)ccc1C (stereo not drawn)	10.4%
Nc1nnc(SCC(=O)Nc2cccc3ccccc23)s1	14.1%
COc1ccc(CSC2=NCCN2)cc1Br	1.43%
CC(C)(C)CN1C(=O)C(=O)NC[C@@H]1CCCCN	17.4%
CCN(CC)CC.CCOc1ccccc1-n1c(=S)sc2c(=O)n(-c3ccc(C)cc3)c(=S)[nH]c21	17.3%

SMILES	hERG current change (%, negative = inhibition) at 10uM
COC(=O)c1nc2nc(C)cc(C(F)(F)F)n2n1	8.95%
O=C(NCc1cccnc1)NC1CC(=O)N(c2ccc3c(c2)OCCO3)C1 (stereo not drawn)	-0.536%
COc1ccc(CCNS(=O)(=O)c2cc3c(cc2C)NC(=O)CO3)cc1OC	6.94%
COc1ccccc1N1CCN(C(=O)c2cc(-c3ccccc3)on2)CC1	8.22%
CCOC(=O)c1ccc(N)cc1	14.4%
COc1cccc(C(=O)NCC2(c3ccccc3)CCCC2)c1	-9.86%
Cc1ccc(-c2nn3c(C)nnc3c3ccccc23)cc1S(=O)(=O)NCCN1CCOCC1	-30.5%
CC(=O)c1ccc(NC(=O)CSc2nc(C)cc(C)c2C(N)=O)cc1	14.9%
O=C(CC12CC3CC(C1)CC(CC(=O)N1CCCC1)(C3)C2)N1CCCC1	-1.42%
CC(C)C[C@H](NC(=O)c1nc[nH]c1C(=O)NCc1ccc(CNC(=O)OC(C)(C)C)cc1)C(=O)OC(C)(C)C	2.06%
COc1cc(C(=O)OCCN2CCOCC2)ccc1O	6.63%
COCC(=O)OCC(=O)Nc1cc(C(C)(C)C)nn1-c1ccccc1	19.8%
CC(NC(=O)Cc1ccsc1)c1ccc(F)cc1 (stereo not drawn)	10.1%
COc1ccccc1NC(=O)CN1CCN(c2ccc(Cl)cc2)CC1	-3.82%
COCCOC(=O)c1c(NC(=O)CNCc2ccco2)sc(C(N)=O)c1C	-11%
Cc1cc(=O)n2c(nc3ccccc32)[nH]1	-5.21%
O=C(CCn1cccc(C(F)(F)F)c1=O)Nc1cccc(C(F)(F)F)c1	-5.91%
Cc1nc(CNC(=O)CC2C(=O)NCCN2Cc2cccc(Oc3ccccc3)c2)cs1 (stereo not drawn)	10.4%
c1ccc(-c2noc(-c3cccs3)n2)nc1	-22.7%
N/C(Cc1ccc(Cl)c(Cl)c1)=N\OC(=O)c1cccs1	8.25%
COC(=O)Nc1ccc(S(=O)(=O)N(CCO)CC(F)(F)C(F)F)cc1	18.3%
